Test results published in PubChem BioAssay AID1508624 (National Center for Advancing Translational Sciences (NCATS), 2021).
Screen size: about 48,000 compounds; about 120 (0.25%) were called active. Inconclusive results (about 4%) are left out. The call rests on the fitted dose curve; in most records, active means well fitted activation curve with a large enough effect; inconclusive means small, poorly fitted or top-dose-only effect, or another doubt; inactive means no such curve, though single readings can be large or run the other way. This is a selection; strong and weak results do not stand in their true shares. Entries without a call were filed so in the source.

test: Primary qHTS for Identification of Small Molecule Activators of Huntingtin-Antisense Promoter Activity; conditions: HEK293 HTT-AS promoter firefly luciferase reporter, 24 h; activity change, positive = activation: at 57.5 µM (top of the series), percent change from vehicle, -100% = no light; further: nearly all actives have a fitted effect of over 55% in size
Summary of the method: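 Luminescence was read after Dual-Glo reagent and a 10 min room-temperature incubation. Values were normalized to vehicle (0% activity) and zero RLU (-100% activity). Reporter HEK293 cells had been exposed to compounds (up to 57.5 uM final) for 24 h.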

Row | Compound | activity change, positive = activation
1 | Cc1ccc(Cl)cc1NC(=O)c1cccc(NC(=O)N2CCSc3ncccc32)c1 | inactive: -32.8%
2 | COc1ccc(S(=O)(=O)N(CCc2ccccc2)CC(=O)NCc2ccccc2)cc1OC | -26.4%
3 | c1ccc(N2CCN(c3ncnc4[nH]ncc34)CC2)cc1 | inactive: -1.98%
4 | COC(=O)c1ccc(NC(=O)CC2C(=O)N(c3ccc(F)cc3)C(=O)N2Cc2ccc(OC)cc2)cc1 (configuration not stated) | -10.6%
5 | CCOC(=O)c1cc(C)n(CC2CCC(C(=O)Nc3ccc(OCC)cc3)CC2)c1C (configuration not stated) | -38.1%
6 | CCc1ccc(NC(=O)CC2C(=O)N(c3ccc(Cl)cc3)C(=O)N2Cc2cccs2)cc1 (configuration not stated) | 1.81%
7 | COc1ccc(O)c(C2Nc3ccccc3-n3c(-c4ccccc4)c4c(=O)n(C)c(=O)n(C)c4c32)c1 (configuration not stated) | -21.7%
8 | COc1ccc(S(=O)(=O)Nc2cccc(-c3ccc(N4CCCCCC4)nn3)c2)cc1 | 30.6%
9 | O=C(NCCSCc1ccccc1Cl)C1CCN(S(=O)(=O)Cc2ccccc2)CC1 | -10.2%
10 | Cc1nn(-c2ccc(N3CCCC3)nn2)c(C)c1CCC(=O)NCc1ccccc1F | -6.83%
11 | COc1ccc(CN2C(=O)N(c3ccc(F)cc3)C(=O)C2CC(=O)Nc2cc(OC)cc(OC)c2)cc1 (configuration not stated) | -17.7%
12 | COc1ccc(-c2c3c(=O)n(C)c(=O)n(C)c3c3n2-c2ccccc2NC3c2ccc(O)cc2O)cc1 (configuration not stated) | -12%
13 | O=C(CSc1nc(-c2cccs2)nc2cc(=O)[nH]n12)Nc1cccc(C(F)(F)F)c1 | -11.6%
14 | COc1ccc(CCNC(c2ccc(F)cc2)c2nnc(-c3ccccc3Cl)o2)cc1OC (configuration not stated) | -25.9%
15 | CCOC(=O)/C(C#N)=C/c1ccc(-c2ccc(Br)cc2)o1 | 18.3%
16 | Cc1nn(-c2ccc(N3CCCCC3)nn2)c(C)c1CCC(=O)NCc1ccc(OC(C)C)cc1 | -35.4%
17 | CCc1ccc(CNCc2c(C(=O)O)c(C)n(Cc3c(F)cccc3Cl)c2C)cc1 | inactive: -17.6%
18 | COc1ccc(CCNC(=O)Cn2nc(C)n3c(cc4cc(F)ccc43)c2=O)cc1OC | -6.1%
19 | Cc1ccc(C)c(N2CCN(C(=O)c3cc4c(=O)n(Cc5ccco5)ccc4nc3C)CC2)c1 | -25.3%
20 | Cc1cc(NC(=O)CCNS(=O)(=O)c2ccc3c(c2)CCCC(=O)N3)ccc1Br | inactive: -16.5%
21 | Cc1ccc(CNC(=O)C2CCCCN2S(=O)(=O)c2ccc(F)cc2)cc1 (configuration not stated) | -35%
22 | Cc1ccc(NC(=O)CSc2nc(-c3ccc(C(C)(C)C)cc3)nc3cc(=O)[nH]n23)cc1C | -16.1%
23 | C[C@@H](CN(C)C)CN1c2ccccc2Sc2ccccc21 | inactive: -21.4%

Row | Compound | activity change, positive = activation
24 | O=C(NCc1ccccc1Cl)c1cnc2sc(N3CCOCC3)nn2c1=O | -4.08%
25 | COc1ccc(-c2cc(C(=O)Nc3ccn(Cc4ccc(C)cc4)n3)no2)cc1OC | -2.67%
26 | CCS(=O)(=O)N1CCC(n2c(C)nc3cccnc32)CC1 | 0.484%
27 | COc1cc2oc(=O)c(CC(=O)N3CCCCC3)c(C)c2cc1OC | -11%
28 | O=C(NCCSCc1c(F)cccc1Cl)C1CCN(S(=O)(=O)Cc2ccccc2)CC1 | -10.2%
29 | COc1ccc(OC)c(NC(=O)CSc2nc(-c3ccccc3C)nc3cc(=O)[nH]n23)c1 | -1.16%
30 | CS(=O)(=O)N1CCC(n2c(C(F)(F)F)nc3cccnc32)CC1 | 3.91%
31 | CC1(C)CCC(CN2CCN(c3ccc(C(=O)NS(=O)(=O)c4ccc(NCC5CCOCC5)c([N+](=O)[O-])c4)c(Oc4cnc5[nH]ccc5c4)c3)CC2)=C(c2ccc(Cl)cc2)C1 | inactive: -5.94%
32 | Cc1ccc(NC(=O)c2c(C(=O)Nc3ccccc3)sc3nc(C)cc(=O)n23)c(C)c1 | -27.1%
33 | O=S(=O)(c1ccc(F)cc1)N1CCC(n2c(C(F)(F)F)nc3cccnc32)CC1 | -25.4%
34 | Cc1ccc(C(=O)N2CCC(N3CCN(Cc4ccc(F)cc4)C(=O)C3=O)CC2)cc1 | -3.42%
35 | CCN1CCN(Cc2c(O)ccc3oc(C)c(C(=O)Nc4ccc(C)cc4C)c23)CC1 | -3.33%
36 | CCCOc1ccc(NC(=O)CC2C(=O)N(c3ccc(Cl)cc3)C(=O)N2CCc2ccncc2)cc1 (configuration not stated) | 18.1%
37 | CCC1CCCCN1CCCNC(=O)c1ccc2c(c1)N(Cc1ccc(Cl)cc1)C(=O)c1ccccc1S2(=O)=O (configuration not stated) | inactive: -14.2%
38 | CCCOc1ccc(C2C(=O)N(C3CCC(C)CC3)CC(=O)N2CCC2=CCCCC2)cc1OC (configuration not stated) | -7.74%
39 | COc1ccc(OC)c(-c2cc(C(=O)NC(C)c3ccccc3)no2)c1 (configuration not stated) | -16.6%
40 | COc1ccc(NC(=O)Nc2sc3nc4n(c(=O)c3c2C)CCC(C)CC4)cc1OC (configuration not stated) | -27.8%
41 | COc1ccc(C2=CC(c3ccccc3F)n3ncc(C(=O)Nc4ccc(C)cc4)c3N2)cc1 (configuration not stated) | inactive: 15.2%
42 | CCCc1cc(C(=O)Nc2c(C)nn(Cc3ccc(C)cc3)c2C)no1 | -30.8%
43 | CCN(CC)S(=O)(=O)c1cc(-c2nnc(Nc3ccc(OC)c(C(N)=O)c3)c3ccccc23)ccc1C | -40.3%
44 | Cc1ccc(C)c(NC(=O)c2ccc3c(c2)CCN3S(C)(=O)=O)c1 | inactive: -3.28%
45 | CCOC(=O)c1ccc(N2CCN(c3cccc(Cl)c3)CC2)c(NC(=O)Nc2ccc(OC)cc2OC)c1 | -4.33%
46 | O=C(CSc1nc2ccccc2nc1Cc1ccc(F)cc1)Nc1ccc2c(c1)OCO2 | -1.25%

Row | Compound | activity change, positive = activation
47 | Cc1cc(=O)n2c(C(=O)Nc3ccc(C)c(Cl)c3)c(C(=O)Nc3ccccc3)sc2n1 | -8.45%
48 | Cn1c(=O)n(C)c2cc(N3CCCCC3)c(NC(=O)c3ccc(Cl)cc3)cc21 | -2.14%
49 | COC(=O)c1cc2oc3ccccc3c2n1Cc1nc(-c2cccc(Cl)c2)oc1C | 4.32%
50 | Cc1nn(CC(=O)NC2CCCCC2)c(=O)c2cc3cc(F)ccc3n12 | -10%
51 | Cc1cc(C)c(Cn2c(CCNC(=O)c3ccco3)nc3ccccc32)c(C)c1 | -27%
52 | Oc1ccccc1-c1nc(/C=C/c2ccccc2)nn1-c1ccccc1 | 22.2%
53 | CC1CCN(c2nn3c(=O)c(C(=O)NCCc4ccc(Cl)cc4)cnc3s2)CC1 | -4.25%
54 | Cc1ccc(-n2ccnc(NCCc3ccccc3)c2=O)cc1C | inactive: 7.04%
55 | COc1ccc(OC)c(-c2cc(C(=O)NCc3ccc(Cl)cc3)no2)c1 | -13%
56 | Cn1c(=O)c2c(-c3ccccc3)n3c(c2n(C)c1=O)C(c1cccc([N+](=O)[O-])c1)Nc1ccccc1-3 (configuration not stated) | -8.55%
57 | CCN(C(=O)Cn1cnc2c1c(=O)n(C)c(=O)n2C)c1ccccc1C | 0.0853%
58 | CCc1ccc(S(=O)(=O)Nc2ccc3oc(C)c(C(=O)OCCOC)c3c2)cc1 | -23.2%
59 | COc1ccc(CNC(=O)C2CCN(S(=O)(=O)Cc3ccccc3)CC2)cc1 | -0.724%
60 | CC(=O)c1ccc(S(=O)(=O)Nc2cccc(-c3ccc(N4CCCC4)nn3)c2)cc1 | 0.255%
61 | Cc1nn(-c2ccc(N3CCCCC3)nn2)c(C)c1CCC(=O)Nc1cccc(F)c1 | 17.6%
62 | CN1CCN(c2cc(C(=O)Nc3ccc4c(c3)-c3c(c(C(N)=O)nn3-c3ccc(F)cc3)CC4)c(Cl)cn2)CC1 | inactive: -6.76%
63 | Cc1cc(C)c(S(=O)(=O)Nc2ccc(-c3ccc(N4CCCCC4)nn3)cc2)cc1C | 8.83%
64 | O=C(Nc1ccc(F)cc1)c1ccc2c(c1)NC(=O)c1ccccc1S2 | -46.8%
65 | Nc1nonc1-c1nc2ccccc2n1CC(=O)Nc1cccc(Cl)c1Cl | -26.8%
66 | CN(C)CC(C)(C)CNc1nn2c(-c3ccccc3)nnc2cc1C1CCC1 | inactive: -27.2%
67 | CCc1ccc(NC(=O)CC2C(=O)N(c3ccc(OC)cc3)C(=O)N2Cc2cccs2)cc1 (configuration not stated) | -31.9%
68 | Cc1c(CC(=O)N2CCCCC2)c(=O)oc2cc(O)ccc12 | 1.94%
69 | COc1cccc(-c2nc(SCc3cccc(Br)c3)n3[nH]c(=O)cc3n2)c1 | -0.804%

Row | Compound | activity change, positive = activation
70 | COc1cc2c(cc1OC)C(c1ccc(Cl)cc1)N(c1cccc(C#N)c1)C(=O)C2 (configuration not stated) | -24.4%
71 | Cc1ccc(S(=O)(=O)Nc2cccc(-c3ccc(N4CCCC4)nn3)c2)c(C)c1 | -1.71%
72 | Cc1ccc(-n2nc(C)c(C(=O)NCCCN3CCN(c4cccc(Cl)c4)CC3)c2-n2cccc2)cc1 | -13%
73 | N#Cc1ccccc1OCC(=O)N1CCN(c2ccccc2)CC1 | 9.75%
74 | CNc1nccc(-c2cccnc2Oc2cc(C(=O)Nc3cccc(C(F)(F)F)c3)ccc2C)n1 | inactive: -24.8%
75 | CCOc1ccc(NC(=O)CC2C(=O)N(c3ccc(Cl)cc3)C(=O)N2Cc2cccs2)cc1 (configuration not stated) | -17.6%
76 | Cc1ccccc1OCCn1c(-c2ccc(Cl)cc2)nc2ccccc2c1=O | 7.47%
77 | Cc1ccc(CCNS(=O)(=O)c2ccc3c(c2)CC(C)N3C(=O)C2CCC2)cc1 (configuration not stated) | -6.6%
78 | COc1ccccc1CN1C(=O)CN(C2CCCCCC2)C(=O)C1c1ccc(F)cc1 (configuration not stated) | -21.7%
79 | COc1cc(C)cc2oc(=O)c(CC(=O)NCCc3ccc(Cl)cc3)c(C)c12 | 6.63%
80 | COc1cccc(CNC(=O)Cc2c(C)c3ccc(OC)c(C)c3oc2=O)c1 | 1.44%
81 | COc1ccc(C2=C(N3CCN(c4cccc(C)c4)C(C)C3)c3ccccc3C2=O)cc1 (configuration not stated) | 38.3%
82 | CCOc1ccc(CCNC(=O)CCCc2nnc3n(CC)c(=O)c4sccc4n23)cc1OCC | inactive: -2.65%
83 | CCc1ccc(S(=O)(=O)c2cn(Cc3ccccc3F)c3cc(OC)c(OC)cc3c2=O)cc1 | inactive: -19.7%
84 | COc1ccc(Br)cc1CNC(=O)c1ccc2c(c1)nc1n2CCC(C)C1 (configuration not stated) | inactive: -5.14%
85 | CCOC(=O)c1c(-c2ccc(C)cc2)csc1NC(=O)c1cc(-c2ccc(C)c(F)c2)on1 | -4.4%
86 | CCc1ccccc1NC(=O)c1cc(-c2ccc(OC)cc2)on1 | 11.8%
87 | Cc1oc2c(cc(NS(=O)(=O)c3ccc(Br)cc3)c3ccccc32)c1C(=O)OCc1ccccc1 | -7.79%
88 | CC(=O)Nc1ccc(S(=O)(=O)N2CCC(N3CCN(Cc4ccc(C)cc4)C(=O)C3=O)CC2)cc1 | 8.73%
89 | CC1Cc2cc(S(=O)(=O)CCC(=O)Nc3cccc(F)c3)ccc2N1C(=O)C1CC1 (configuration not stated) | -24.6%
90 | O=C(Cn1ncn2c(cc3cc(F)ccc32)c1=O)NC1CCCCC1 | -1.25%
91 | COC(=O)c1ccccc1NC(=O)c1cc2ccccn2n1 | 40.5%
92 | O=C(COc1ccc(Cl)cc1)NCCc1csc(-c2ccc(C(F)(F)F)cc2)n1 | inactive: -30%
